# Reference: PubChem BioAssay AID485294 (National Center for Advancing Translational Sciences (NCATS), 2010)
# Hit rate of the full screen: of about 370,000 compounds, about 150 (0.041%) were called active. Inconclusive means that the source gave no clear call. Such entries were picked first, then a sample of the others. Calls follow the shape of the dose curve; as a rule, active = well fitted inhibition curve with a large enough effect; inconclusive = small, poorly fitted or top-dose-only effect; inactive = flat fitted curve, though single readings scatter. No potency is given beside an inconclusive call; the fits are too rough.
# Target: Beta-lactamase (Escherichia coli (strain K12)) (UniProt P00811)
# Test: qHTS Inhibitors of AmpC Beta-Lactamase (assay with detergent); also: nearly all actives have a fitted effect of over 25% in size;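 as to activity change, negative = inhibition: 0% = no-compound wells and -100% = no-enzyme wells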
# Details: AmpC hydrolysis of nitrocefin, absorbance 480 nm, 0.01% Triton; activity change, negative = inhibition: at 114 µM (top of the series)
# Procedure, shortened: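 20 mM phosphate pH 7.0 + 0.01% (detergent screen) or 0.0001% Triton X-100; 5.3 nM AmpC reagent; cpd preinc 15 min RT; nitrocefin (800 uM stock) to start; A480 q20 s × 4 min; Activity was normalised to no-enzyme and no-compound control wells.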
# Potency is read from the fitted curve at half-maximal effect; tags tell the direction and shape of the fitted curve.
# Chain of UniProt P00811 (P00811 whole entry, looked up): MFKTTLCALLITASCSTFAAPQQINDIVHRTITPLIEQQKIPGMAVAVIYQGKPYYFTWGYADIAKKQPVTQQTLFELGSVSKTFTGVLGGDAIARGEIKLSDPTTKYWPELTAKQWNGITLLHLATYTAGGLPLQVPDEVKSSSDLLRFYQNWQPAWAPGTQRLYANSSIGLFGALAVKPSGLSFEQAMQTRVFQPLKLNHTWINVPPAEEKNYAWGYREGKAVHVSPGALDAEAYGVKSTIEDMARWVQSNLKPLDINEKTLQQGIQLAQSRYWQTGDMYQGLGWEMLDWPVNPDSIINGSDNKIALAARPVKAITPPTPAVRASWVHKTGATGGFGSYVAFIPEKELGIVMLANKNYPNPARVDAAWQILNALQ
Compound,Potency,"activity change, negative = inhibition"
COc1ccccc1N(C)S(=O)(=O)c1ccc(C)c(C(=O)Nc2nccs2)c1,"inconclusive [inhibitor, partial curve, poor fit]",
COc1ccc(C(=O)N2CCCC(N3CCN(c4ccccc4F)CC3)C2)c(OC)n1 (configuration not stated),"inconclusive [inhibitor, full curve, poor fit]",
CC12CCC(c3c(C(=O)O)nn(-c4ccc(F)cc4)c31)C2(C)C (configuration not stated),"inconclusive [inhibitor, single point]",
COc1ccc(C(=O)NC2CCN(C(=S)Nc3cccc(C)c3C)CC2)cc1,"inconclusive [inhibitor, full curve, poor fit]",
CCN(CC)C(=O)N1CCC(NC(=O)c2ccc(C(C)(C)C)cc2)CC1,"inconclusive [inhibitor, full curve, poor fit]",
C[C@@H](C(=O)Nc1ccc2ccccc2c1)[C@@H]1C[C@@]1(C)[C@@H](NC(=O)c1cccnc1)c1ccccc1,"inconclusive [inhibitor, full curve, poor fit]",
O=C(CNC(=O)C(c1ccccc1)c1ccccc1)N/N=C\c1ccc(C(=O)O)cc1,"inconclusive [inhibitor, full curve]",
COc1cc(NC(=S)NCCCN2CCOCC2)c(OC)cc1Cl,"inconclusive [inhibitor, full curve]",
CCCCOc1ccc(/C=C/C(=O)Nc2ccc([N+](=O)[O-])cc2C)cc1,"inconclusive [inhibitor, single point]",
Cc1cc2nc(-c3cccnc3SCC(=O)NC3CC3)[nH]c2cc1C,"inconclusive [inhibitor, full curve, poor fit]",
Cn1nnnc1SCc1ccccc1[N+](=O)[O-],"inconclusive [inhibitor, full curve]",
Cc1ccc2nc(C3CCCN(C(=S)Nc4cccc(C)c4C)C3)[nH]c2c1 (configuration not stated),"inconclusive [inhibitor, full curve, poor fit]",
O=C(NCc1ccccc1)C(c1cccnc1)N(Cc1ccco1)C(=O)c1ccccn1 (configuration not stated),"inconclusive [inhibitor, full curve, poor fit]",
CCOC(=O)c1ccc(NC(=O)CC2C(=O)N(c3ccc(F)cc3)C(=O)N2Cc2ccc(C)cc2)cc1 (configuration not stated),,inactive: -13.7%
CCOC(=O)c1ccccc1NC(=O)CSc1nnc(Cc2cccn2C)n1-c1ccc(C)cc1,"inconclusive [inhibitor, single point]",
Nc1nc(CSCCO)nc(Nc2ccc(F)cc2)n1,,inactive: -13.4%
O=C(CSc1nnc([C@@H]2CCCN2)o1)c1ccc(Cl)cc1,,inactive: -11.5%
Oc1ccc2ccccc2c1/C=N/c1nc2c(s1)CCCC2,,inactive: -3.08%
COCCCN(C)C1CCN(C(=O)Nc2ccc(F)cc2)CC1,"inconclusive [inhibitor, full curve, poor fit]",
Cc1cc(NC(=O)CSc2nc(-c3ccc(F)cc3)cs2)no1,"inconclusive [inhibitor, full curve, poor fit]",
Cc1ccc(NC(=O)C(C)OC(=O)/C=C/c2ccccc2)cc1S(=O)(=O)N1CCOCC1 (configuration not stated),,inactive: -16.6%
COc1cc(CCC(=O)N2CCN(c3ccc([N+](=O)[O-])cc3)CC2)cc(OC)c1OC,,inactive: -0.411%
O=C(N1CCCC1)C12CC3CC(CC(C3)C1)C2,,inactive: -4.6%

Compound,Potency,"activity change, negative = inhibition"
CC(C)Cn1c(SCC(=O)NC2CCCc3ccccc32)nc(O)cc1=O (configuration not stated),"inconclusive [inhibitor, partial curve, poor fit]",
CCOC(=O)n1cc(-c2cnc(CNC(=O)C(C)(c3ccccc3)c3ccccc3)o2)c2ccccc21,"inconclusive [inhibitor, full curve, poor fit]",
CCOC(=O)N1CCC(NC(=O)C(NS(=O)(=O)c2cccc3nsnc23)c2ccccc2)CC1 (configuration not stated),"inconclusive [inhibitor, full curve, poor fit]",
COc1cc(CC(=O)OC2CCOC2=O)cc(OC)c1OC (configuration not stated),,inactive: -6.73%
Cc1cc(C)c2sc(N3CCN(C(=O)C4CC4)CC3)nc2c1,,inactive: -0.23%
COCCNC(=O)C(C)Oc1ccc(Cl)cc1Cl (configuration not stated),"inconclusive [inhibitor, full curve]",
CSc1ccc(CCNc2ncnc3onc(-c4ccc(Cl)cc4)c23)cc1,"inconclusive [inhibitor, full curve, poor fit]",
COc1cccc(/C=C2/SC(=S)N(CC(=O)Nc3nnc(C)s3)C2=O)c1,"inconclusive [inhibitor, full curve]",
O=C(Nc1ccc(F)cc1F)c1cccc(C(=O)Nc2ccc(F)cc2F)n1,"inconclusive [inhibitor, full curve]",
Cc1ccsc1C(=O)NCCC(c1ccccc1)c1ccccc1,,inactive: -7.02%
COc1ccc(S(=O)(=O)NCCc2csc(-c3cccnc3)n2)cc1,"inconclusive [inhibitor, full curve, poor fit]",
O=S(=O)(NCc1ccccc1F)NCc1ccccc1F,,inactive: -1.98%
COc1ccc(Cl)cc1C(=O)NNC(=O)c1n[nH]c2ccccc12,"inconclusive [inhibitor, full curve, poor fit]",
CCCc1cc(=O)[nH]c(SCc2nc3ccc([N+](=O)[O-])cc3[nH]2)n1,"inconclusive [inhibitor, partial curve]",
O=C(c1ccc(Cn2cnnn2)cc1)N1CCCC(Nc2ccc(F)cc2)C1 (configuration not stated),"inconclusive [inhibitor, full curve, poor fit]",
COc1ccc(OCCCn2c(=O)oc3ccccc32)cc1,"inconclusive [inhibitor, single point]",
Cc1cccc(NC(=S)N(CCN(C)C)C(C)c2ccccn2)c1 (configuration not stated),"inconclusive [inhibitor, single point]",
O=C(Nc1ccccc1OCc1ccccc1)c1ccccc1Br,,inactive: 2.57%
CCOC(=O)c1ccccc1NS(=O)(=O)c1c(C)nc2sccn2c1=O,"inconclusive [inhibitor, single point]",
Cc1ccccc1NC(=S)N(Cc1ccccn1)Cc1ccccc1Cl,"inconclusive [inhibitor, full curve, poor fit]",
COc1ccc(CNC(=O)c2nc(S(=O)(=O)Cc3ccccc3)ncc2Cl)cc1,"inconclusive [inhibitor, full curve, poor fit]",
CCN(CC)S(=O)(=O)c1ccc2c(c1)c(=O)c(C(=O)NCc1ccc3c(c1)OCO3)cn2C,"inconclusive [inhibitor, partial curve]",
Cc1cccc(OCCOCCN2CCOCC2)c1C,"inconclusive [inhibitor, full curve, poor fit]",

Compound,Potency,"activity change, negative = inhibition"
CCCCC(=O)Nc1nn(CCC)c2nc3ccccc3cc12,,inactive: 13.4%
CCCc1cc(CNC(=O)C2CCC(=O)N(Cc3ccccc3OC)C2)on1 (configuration not stated),"inconclusive [inhibitor, partial curve, poor fit]",
Cc1ccc(SCC(=O)Nc2cccc(-c3nnc(-c4ccco4)o3)c2)cc1,"inconclusive [inhibitor, partial curve, poor fit]",
CCCCN=Cc1c(O)n(-c2c(C)cc(C)cc2C)c(=O)[nH]c1=O,"inconclusive [inhibitor, full curve, poor fit]",
COc1ccccc1OCc1ccc(C(=O)n2nc(C)c(Cl)c2C)o1,"inconclusive [inhibitor, full curve]",
Cc1ccc(-n2c(=O)c3ccc(C(=O)NCc4ccco4)cc3n(Cc3ccc(Cl)cc3)c2=O)cc1,,inactive: 0.618%
CN(CCNC(=O)Cn1c(=O)sc2ccccc21)Cc1ccccc1,"inconclusive [inhibitor, partial curve, poor fit]",
O=c1[nH]c(CSc2nc3ccccc3[nH]2)nc2c1cnn2-c1ccccc1,,inactive: 0.236%
CC1CCCCC1NC(=O)CCn1ccc2cc(S(=O)(=O)N3CCCC3)ccc21 (configuration not stated),"inconclusive [inhibitor, partial curve, poor fit]",
FC(F)(F)c1ccc(Cl)c(-n2c(Cc3cccs3)n[nH]c2=S)c1,"inconclusive [inhibitor, partial curve, poor fit]",
CN(C)c1ccc(/C=N\Nc2nc(-c3ccccc3)cc(=O)[nH]2)cc1,,inactive: -12.4%
COc1cc2nc(NCc3ccccc3)n3nc(-c4ccccc4)nc3c2cc1OC,,inactive: 27.3%
O=C(Cc1cccs1)NCc1ccc(Cl)cc1,"inconclusive [inhibitor, partial curve]",
Cc1nc2ccn(Cc3cccs3)c(=O)c2cc1C(=O)N1CCN(c2ccccc2)CC1,,inactive: 17.8%
CNC(=O)CO/N=C/c1ccc(N(C)C)cc1,"inconclusive [inhibitor, partial curve, poor fit]",
Cc1ccccc1C(=O)N1CCC(C(=O)Nc2sccc2C(N)=O)CC1,"inconclusive [inhibitor, full curve, poor fit]",
Cc1ccc(CNC(=O)CN(c2cc(C)cc(C)c2)S(=O)(=O)c2c(C)noc2C)cc1,,inactive: -1.06%
Cc1nc2cc(-c3ccccc3)nn2c(C)c1CCC(=O)NCc1cccc(Cl)c1,,inactive: -3.15%
Cc1ccc2c(c1)NC(=O)C(CC(=O)Nc1ccc(CN3CCC(C)CC3)cc1)O2 (configuration not stated),"inconclusive [inhibitor, full curve, poor fit]",
O=C1COc2ccc(C(=O)COC(=O)c3cnc(Cl)c(Cl)c3)cc2N1,,inactive: -4.77%
O=C(COc1ccc(Cl)cc1Br)NNC(=O)C(=O)N1CCCCC1,"inconclusive [inhibitor, partial curve]",
